This is an account of results in article PMC3819392.

Amino acid sequences for entries named in this document (tags omitted).
UniProt P42336: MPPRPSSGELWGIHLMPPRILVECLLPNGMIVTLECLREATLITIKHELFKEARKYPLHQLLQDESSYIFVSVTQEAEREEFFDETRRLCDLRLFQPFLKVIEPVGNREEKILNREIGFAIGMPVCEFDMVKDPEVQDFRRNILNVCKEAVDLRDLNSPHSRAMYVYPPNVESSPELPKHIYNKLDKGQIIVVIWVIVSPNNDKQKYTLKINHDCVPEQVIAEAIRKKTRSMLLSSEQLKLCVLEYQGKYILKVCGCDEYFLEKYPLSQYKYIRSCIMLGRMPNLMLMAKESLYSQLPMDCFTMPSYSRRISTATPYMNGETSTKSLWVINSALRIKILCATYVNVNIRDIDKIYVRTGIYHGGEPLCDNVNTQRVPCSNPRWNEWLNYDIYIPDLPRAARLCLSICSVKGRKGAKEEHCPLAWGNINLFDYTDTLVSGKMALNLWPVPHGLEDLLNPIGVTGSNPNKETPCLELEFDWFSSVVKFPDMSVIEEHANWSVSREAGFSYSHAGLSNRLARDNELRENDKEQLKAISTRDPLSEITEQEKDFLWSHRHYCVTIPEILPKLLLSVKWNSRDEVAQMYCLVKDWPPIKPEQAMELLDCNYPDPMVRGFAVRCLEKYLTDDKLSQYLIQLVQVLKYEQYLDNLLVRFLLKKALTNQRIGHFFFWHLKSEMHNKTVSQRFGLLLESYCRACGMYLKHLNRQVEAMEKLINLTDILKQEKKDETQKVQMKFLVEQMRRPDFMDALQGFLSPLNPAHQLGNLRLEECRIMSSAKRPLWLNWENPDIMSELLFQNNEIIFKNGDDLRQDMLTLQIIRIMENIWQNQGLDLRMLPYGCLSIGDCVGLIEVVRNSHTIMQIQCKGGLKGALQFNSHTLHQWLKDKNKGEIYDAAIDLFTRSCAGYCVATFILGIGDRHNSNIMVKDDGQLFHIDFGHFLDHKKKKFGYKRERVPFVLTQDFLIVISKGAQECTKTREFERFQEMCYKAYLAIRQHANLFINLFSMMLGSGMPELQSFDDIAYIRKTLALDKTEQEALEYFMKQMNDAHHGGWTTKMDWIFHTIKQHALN
UniProt P42338: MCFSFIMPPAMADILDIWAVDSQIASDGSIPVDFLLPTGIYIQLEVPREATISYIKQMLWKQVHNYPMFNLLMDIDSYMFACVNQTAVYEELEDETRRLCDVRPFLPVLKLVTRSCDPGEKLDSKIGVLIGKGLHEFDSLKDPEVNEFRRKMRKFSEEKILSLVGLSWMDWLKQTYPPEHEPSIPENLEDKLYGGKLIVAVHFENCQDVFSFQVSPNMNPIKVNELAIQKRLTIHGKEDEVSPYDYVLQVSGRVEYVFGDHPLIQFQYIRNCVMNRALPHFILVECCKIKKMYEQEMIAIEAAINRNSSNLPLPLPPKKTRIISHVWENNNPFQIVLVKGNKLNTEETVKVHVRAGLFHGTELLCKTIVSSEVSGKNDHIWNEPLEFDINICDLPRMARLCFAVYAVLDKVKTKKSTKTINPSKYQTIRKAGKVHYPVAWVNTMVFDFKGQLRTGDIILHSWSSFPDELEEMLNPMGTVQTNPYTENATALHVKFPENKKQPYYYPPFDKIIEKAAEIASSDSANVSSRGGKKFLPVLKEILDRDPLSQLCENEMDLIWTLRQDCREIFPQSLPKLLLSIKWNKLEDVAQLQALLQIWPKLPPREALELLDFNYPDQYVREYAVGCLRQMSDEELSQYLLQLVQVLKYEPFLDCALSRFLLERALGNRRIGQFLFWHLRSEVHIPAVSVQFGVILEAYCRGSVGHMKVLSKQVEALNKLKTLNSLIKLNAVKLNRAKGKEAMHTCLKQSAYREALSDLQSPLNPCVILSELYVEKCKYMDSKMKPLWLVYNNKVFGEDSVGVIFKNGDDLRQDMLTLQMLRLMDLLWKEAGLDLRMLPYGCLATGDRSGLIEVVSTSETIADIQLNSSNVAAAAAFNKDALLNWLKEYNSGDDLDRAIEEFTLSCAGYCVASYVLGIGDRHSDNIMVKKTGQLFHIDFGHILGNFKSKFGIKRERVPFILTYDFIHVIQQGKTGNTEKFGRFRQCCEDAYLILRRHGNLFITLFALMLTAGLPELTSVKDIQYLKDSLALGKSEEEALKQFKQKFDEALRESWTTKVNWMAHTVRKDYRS
UniProt P60484: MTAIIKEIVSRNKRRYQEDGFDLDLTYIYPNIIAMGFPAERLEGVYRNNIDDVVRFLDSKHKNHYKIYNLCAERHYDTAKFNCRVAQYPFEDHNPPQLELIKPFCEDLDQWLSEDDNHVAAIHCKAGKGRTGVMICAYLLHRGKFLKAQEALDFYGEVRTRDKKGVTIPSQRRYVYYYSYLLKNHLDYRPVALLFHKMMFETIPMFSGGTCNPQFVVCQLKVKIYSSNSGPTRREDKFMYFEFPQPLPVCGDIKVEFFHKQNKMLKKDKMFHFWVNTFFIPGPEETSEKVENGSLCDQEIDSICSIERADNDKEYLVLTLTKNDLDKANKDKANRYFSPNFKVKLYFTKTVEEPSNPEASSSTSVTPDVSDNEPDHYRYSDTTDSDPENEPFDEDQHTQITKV
UniProt P27986: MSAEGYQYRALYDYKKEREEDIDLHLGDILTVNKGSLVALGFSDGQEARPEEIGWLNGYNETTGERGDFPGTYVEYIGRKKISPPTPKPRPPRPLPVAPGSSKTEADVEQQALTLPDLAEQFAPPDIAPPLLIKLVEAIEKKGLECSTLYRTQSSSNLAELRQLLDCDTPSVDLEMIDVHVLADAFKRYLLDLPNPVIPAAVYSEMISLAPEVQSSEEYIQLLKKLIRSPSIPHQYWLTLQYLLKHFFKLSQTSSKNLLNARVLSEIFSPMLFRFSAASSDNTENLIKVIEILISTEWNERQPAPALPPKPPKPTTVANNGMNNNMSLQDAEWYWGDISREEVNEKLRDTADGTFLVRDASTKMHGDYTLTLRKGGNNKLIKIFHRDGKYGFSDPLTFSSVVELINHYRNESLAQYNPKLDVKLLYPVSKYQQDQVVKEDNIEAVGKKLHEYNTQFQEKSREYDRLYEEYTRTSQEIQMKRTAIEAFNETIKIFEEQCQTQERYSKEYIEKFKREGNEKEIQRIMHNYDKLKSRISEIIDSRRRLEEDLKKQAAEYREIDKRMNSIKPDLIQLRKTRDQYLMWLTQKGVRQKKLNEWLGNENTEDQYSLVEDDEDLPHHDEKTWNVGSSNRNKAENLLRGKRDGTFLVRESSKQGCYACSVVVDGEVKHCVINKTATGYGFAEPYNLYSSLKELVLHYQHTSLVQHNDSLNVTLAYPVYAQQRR

No constants are given. Whether binding was seen depends on the method and setting. In cells and extracts the contact can be indirect. Some results given as binding are weak or reduced against the parent protein; the word gives no strength.

In assay [1] the target is PI3K p110α catalytic subunit, endogenous in HuH7 cells (human (endogenous in HuH7)) (UniProt P42336). The assay is described as follows: co-IP; Lysates of HSP20-overexpressing (or empty vector) HuH7 cells in TNE buffer (10 mM Tris-HCl pH 7.8, 1% Nonidet P-40, 150 mM NaCl, 1 mM EDTA, 1 mM DTT); antibody overnight at 4°C, Dynabeads protein A; Western blot; IP with antibodies to the partner or to HSP20. (In general: Immunoblotting shows a protein as a band on a membrane.)

The target of assay [2] is PI3K p110β catalytic subunit, endogenous in HuH7 cells (human (endogenous in HuH7)) (UniProt P42338). The description is as above.
Assay [3] deals with Phosphatase and tensin homologue (PTEN), endogenous in HuH7 cells (human (endogenous in HuH7)) (UniProt P60484). The description is as above.
The target in assay [4] is PI3K p85 regulatory subunit, endogenous in HuH7 cells (human (endogenous in HuH7)) (UniProt P27986). The description is as above.
Assay [5] addresses PI3K p85 regulatory subunit, endogenous in human HCC tissue (human (endogenous in HCC tissue)) (UniProt P27986). The assay can be described thus: co-IP; Lysate of a stage II human HCC tissue in TNE buffer; IP with antibodies to PI3K p85, p110α or p110β overnight at 4°C, Dynabeads protein A; Western blot with HSP20 antibodies.
Assay [6] addresses PI3K p110β catalytic subunit, endogenous in human HCC tissue (human (endogenous in HCC tissue)) (UniProt P42338). The assay is described as above.
The target of assay [7] is PI3K p110α catalytic subunit, endogenous in human HCC tissue (human (endogenous in HCC tissue)) (UniProt P42336). The assay is described as above.

B1: HSP20 (HSPB6), wild-type human, overexpressed in HuH7 cells (protein, UniProt O14558 1-160)
chain: MEIPVPVQPSWLRRASAPLPGLSAPGRLFDQRFGEGLLEAELAALCPTTLAPYYLRAPSVALPVAQVPTDPGHFSVLLDVKHFSPEEIAVKVVGEHVEVHARHEERPDEHGFVAREFHRRYRLPPGVDPAAVTSALSPEGVLSIQAAPASAQAPPPAAAK
Consider B1, for which the binding entry in assay [1] is “binds”; in assay [2], “binds”; in assay [3], “no binding”; in assay [4], “binds”.

B2: HSP20 (HSPB6), endogenous in human HCC tissue (protein, UniProt O14558 1-160)
chain: B1 chain
On to B2, for which the binding result in assay [5], in assay [6] and in assay [7] was “binds” in each case.
